Reference: US5770563A, “Heparin- and sulfatide binding peptides from the type I repeats of human thrombospondin and conjugates thereof” (The United States of America as represented by the …, priority 1995, dated 1998)
Entries after “also recorded” stand apart in the source; their conditions may differ. Where two headings read alike, the source gives them in different places. Not every detail of the peptide structures is certain; ends, links or a residue may be inferred. Peptide text beside a SMILES is read from it.

Tests used:
[1] = target: laminin binding to heparin; assay: Inhibition of 125I-laminin binding to heparin-BSA; design: species or system mouse; conditions: Table 2, free peptide
Method: (§1) The peptides were tested as inhibitors of laminin, thrombospondin or apolipoprotein E binding to a heparin-bovine serum albumen conjugate or to a sulfatide in a solid phase assay essentially following the procedure described in Zabrenetzky et al., Cancer Res., Vol. 50, pages 5937-5942 (1990). Sulfatide (0.2 μg/well for thrombospondin binding, 0.6 μg/well for laminin binding) was immobilized in a mixture of 50 ng of phosphatidyl choline, and 30 ng of cholesterol on polyvinyl chloride microtiter plates. Heparin-BSA (0.2 μg/well) was absorbed onto polyvinyl chloride microtiter plate wells by incubation of 50 μl of Dulbecco's PBS for 2 h at 37°. The wells were emptied and filled with 50 mM tris, pH 7.8 containing 150 mM NaCl, 1 mM CaCl2, 0.025% NaN3, and 1% BSA. After 30 minutes, the wells were emptied and 30 μl of various concentrations of potential inhibitory peptides diluted in the same buffer or buffer alone and 30 μl of ^125 I-labeled laminin, thrombospondin or apolipoprotein E (0.2 μg/ml) were added to each well. After 3 hours at 4°, the wells were washed 6 times with 0.15M NaCl, cut from the plate and the bound radioactivity counted. FIGS. 1A-B and 2A-B show the level of thrombospondin binding to sulfatide and heparin-BSA, respectively, in the presence of increasing concetrations of the peptides listed. FIGS. 3 and 4A-B show the level of laminin binding to sulfatide and heparin-BSA, respectively, in the presence of increasing concentrations of the listed peptides.

[2] = target: laminin binding to sulfatide; assay: Inhibition of 125I-laminin binding to sulfatide; design: species or system mouse; conditions: Table 2, free peptide
Method: as §1

[3] = target: thrombospondin binding to heparin; assay: Inhibition of 125I-thrombospondin binding to immobilized heparin-BSA; design: species or system human
How it was run: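 Solid-phase binding: heparin-BSA (0.2 μg/well) adsorbed 2 h at 37° in Dulbecco's PBS, blocked with tris-BSA. Peptides in 50 mM tris pH 7.8, NaCl, 1 mM CaCl2, 0.025% NaN3, 1% BSA mixed with 125I-thrombospondin (added at 0.2 μg/ml), 3 h at 4°; after saline washes, bound radioactivity counted.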

[4] = test system: A2058 melanoma cells; assay: A2058 melanoma cell adhesion to peptides adsorbed on plastic; format: cell-based, human; conditions: peptide adsorbed on plastic
Method: Human melanoma cell line A2058 (Todaro et al., Proc. Natl. Acad. Sci USA 77, 5258-5262 (1980)) was maintained by monolayer culture at 37° with 5% carbon dioxide in RPMI 1640 medium containing 10% fetal bovine serum. For attachment assays, cells were removed using trypsin, passaged at 10^4 cells/cm^2 and harvested between days 5 and 7. Attachment and spreading on thrombospondin-coated plastic was determined as previously described (Roberts et al., J. Cell Biol. 104, 131-139 (1987)). Inhibition was determined by adding the inhibitor diluted in 0.4 ml of bicarbonate-free RPMI 1640 medium, containing 1 mg/ml of bovine serum albumin (fatty acid free, Sigma), pH 7.3, to wells of a 24-well dish containing bacteriological polystyrene was coated with the indicated peptides at 200 μg/ml. Melanoma cells were harvested by incubation with phosphate buffered saline containing 2.5 mM EDTA for 20 minutes at 37°. The cells were centrifuged and viability (routinely >99%) was assessed by trypan blue exclusion. The cells were resuspended in medium and allowed to recover in suspension for 1 h. Melanoma cells (2×10^5 ) suspended in 100 μl of medium (approx 10^3 /mm^2) were added to each well and allowed to attach for 60 minutes at 37° C. in a humidified atmosphere.

[5] = target: thrombospondin binding to sulfatide; assay: Inhibition of 125I-thrombospondin binding to sulfatide; design: species or system human; conditions: Table 1, free peptide
Method: as §1

[6] = target: apolipoprotein E binding to heparin; assay: Inhibition of 125I-apolipoprotein E binding to heparin-BSA; conditions: Table 2, free peptide; read-out: IC50 Apo E Binding to Heparin
Method: as §1, with “FIGS. 3 and 4A-B show the level of laminin binding to sulfatide and heparin-BSA, respectively, in the presence of increasing concentrations of the listed peptides.” left out

[7] = target: basic fibroblast growth factor (FGF-2) binding to heparin; assay: Inhibition of 125I-bFGF binding to heparin-BSA conjugate; conditions: L-forward peptides; read-out: IC50 Inhibitory Activity
How it was run: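 Heparin-BSA conjugate immobilized in wells; 125I-bFGF added with test peptides and incubated 2 h at 25° C. Bound radioactivity counted after washing and cutting out wells; inhibition of binding derived from counts.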

[8] = test system: A2058 melanoma cells, K1735 melanoma cells; assay: Melanoma cell proliferation; format: cell-based, human, murine; conditions: FICOLL conjugate
[9] = test system: bovine aortic endothelial cells; assay: Proliferation of bovine aortic endothelial cells; format: cell-based; conditions: FICOLL conjugate
Method: Endothelial cell proliferation was measured using the CELL TITER 96™ assay (Promega, Madison, Wis.). 5×10^3 cells were plated into each well of a 96-well culture plate in 0.5 or 5% FCS-containing medium together with the indicated concentrations of growth effectors. After 72 h, 15 μl of dye solution was added to each well, and the plates were incubated for an additional 4 h. Solubilization solution was added, and absorbance at 570 nm was determined after 24 h as described by the manufacturer.
FICOLL conjugates of peptide 353 (SEQ ID NO:28) (GGWSHWSPWSSC), 354 (SEQ ID NO:29) (CGGWSHWSPWSS), 224 364 g (SEQ ID NO:30) and 387 (SEQ ID NO:30) (three syntheses of KRFKQDGGWSHWSPWSSC), or free FICOLL were tested at the indicated concentrations as inhibitors of proliferation of bovine aortic endothelial cells in DMEM medium containing 0.5% (FIG. 24A) or 5% (FIG. 24B) fetal calf serum. […] Therefore, the conjugates are general inhibitors of both large and small vessel endothelial cell proliferation. […] This contrasts with existing inhibitors of endothelial cell proliferation,which are fully active only at low serum concentrations. […] Also tested for the ability to inhibit proliferation of bovine aortic endothelial cells were peptide conjugates 416f1, f2 and f3 (three preparations of the retro-inverso peptide Ac-allD-CSSWPSWHSWGGDQKFRK-NH2 coupled to FICOLL) 407 (SEQ ID NO:30) (an independent synthesis of peptide KRFKQDGGWSHWSPWSSC conjugated to FICOLL) 419 (SEQ ID NO:34) (KRFKAAGGWSHWSPWSSC coupled to FICOLL, where the Q and D of the native sequence were replaced with Ala residues) 392 (KRFKQAGGWSHWSPWSSC (SEQ ID NO:32) where the D is replaced with an Ala residue). […] In all cases, bFGF-stimulated proliferation was inhibited by the active conjugates.
Proliferation of bovine aortic endothelial cells was also determined for cells grown in the presence of the indicated concentrations of peptide 246 (KRFKQDGGWSHWSPWSS) (SEQ ID NO:19) or peptide 416 (retro-inverso) in RPMI-HITES (reg medium) or corresponding conditioned medium from MDA 435 breast carcinoma cells. […]

Question: Which results are given for CC(C)[C@H](NC(=O)[C@H](CO)NC(=O)[C@H](CS)NC(=O)[C@H](CO)NC(=O)[C@H](CO)NC(=O)[C@H](Cc1c[nH]c2ccccc12)NC(=O)[C@@H]1CCCN1C(=O)[C@H](CO)NC(=O)[C@H](Cc1c[nH]c2ccccc12)NC(=O)[C@H](Cc1c[nH]cn1)NC(=O)[C@@H](N)CO)C(=O)N[C@H](C(=O)O)[C@@H](C)O [Peptide 185, SHWSPWSSCSVT] (H-SHWSPWSSCSVT-OH)?
Answer: IC50 [1]: 5 µM; IC50 [2]: 15 µM; IC50 ([3]; Table 1, free peptide, read-out: IC50 Heparin Binding, inhibition of 125I-thrombospondin binding): 20 µM; promotion of melanoma cell adhesion, in words [4]: more active than 184; IC50 [5]: 5.8 µM; IC50 [6]: 8 µM

Question: For C[C@H](NC(=O)[C@H](C)NC(=O)[C@H](CCCCN)NC(=O)[C@H](Cc1ccccc1)NC(=O)[C@H](CCCNC(=N)N)NC(=O)[C@@H](N)CCCCN)C(=O)NCC(=O)NCC(=O)N[C@@H](Cc1c[nH]c2ccccc12)C(=O)N[C@@H](CO)C(=O)N[C@@H](Cc1c[nH]cn1)C(=O)N[C@@H](Cc1c[nH]c2ccccc12)C(=O)N[C@@H](CO)C(=O)N1CCC[C@H]1C(=O)N[C@@H](Cc1c[nH]c2ccccc12)C(=O)N[C@@H](CO)C(=O)N[C@@H](CO)C(=O)N[C@@H](CS)C(N)=O [Peptide 419, KRFKAAGGWSHWSPWSSCam] (H-KRFKAAGGWSHWSPWSSC-NH2), which IC50 [7] is on record?
Answer: 0.18 µM

Question: And the “inhibition of melanoma cell proliferation, in words” value [8]?
Answer: potent inhibitor

Question: What about the “inhibition of aortic endothelial cell proliferation, in words” value [9] of the same compound?
Answer: potent inhibitor; also recorded: do not alter the antiproliferative activities

Question: And the “inhibition of thrombospondin binding to heparin, in words” value ([3]; FICOLL conjugate)?
Answer: potent inhibitor

Question: And the IC50 ([3]; L-forward peptides, free, read-out: IC50 Inhibitory Activity, Free Peptide)?
Answer: 0.028 µM
